This is an account of results in paper PMC4336329 (PLoS ONE, 2015).

About 14,000 (4.5%) of roughly 310,000 compounds showed an effect of 50% or more. Effects have a minus sign here. The list shows a part of the results. Where a SMILES comes first, the peptide text is derived from it. The star is where a group is joined. Cbz = O=C(OCc1ccccc1)*
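Also: peak tail current of the secondary pulse compared with the same well before compound.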

Chain of human ether-à-go-go-related gene (hERG) potassium channel (Q12809 whole entry, looked up): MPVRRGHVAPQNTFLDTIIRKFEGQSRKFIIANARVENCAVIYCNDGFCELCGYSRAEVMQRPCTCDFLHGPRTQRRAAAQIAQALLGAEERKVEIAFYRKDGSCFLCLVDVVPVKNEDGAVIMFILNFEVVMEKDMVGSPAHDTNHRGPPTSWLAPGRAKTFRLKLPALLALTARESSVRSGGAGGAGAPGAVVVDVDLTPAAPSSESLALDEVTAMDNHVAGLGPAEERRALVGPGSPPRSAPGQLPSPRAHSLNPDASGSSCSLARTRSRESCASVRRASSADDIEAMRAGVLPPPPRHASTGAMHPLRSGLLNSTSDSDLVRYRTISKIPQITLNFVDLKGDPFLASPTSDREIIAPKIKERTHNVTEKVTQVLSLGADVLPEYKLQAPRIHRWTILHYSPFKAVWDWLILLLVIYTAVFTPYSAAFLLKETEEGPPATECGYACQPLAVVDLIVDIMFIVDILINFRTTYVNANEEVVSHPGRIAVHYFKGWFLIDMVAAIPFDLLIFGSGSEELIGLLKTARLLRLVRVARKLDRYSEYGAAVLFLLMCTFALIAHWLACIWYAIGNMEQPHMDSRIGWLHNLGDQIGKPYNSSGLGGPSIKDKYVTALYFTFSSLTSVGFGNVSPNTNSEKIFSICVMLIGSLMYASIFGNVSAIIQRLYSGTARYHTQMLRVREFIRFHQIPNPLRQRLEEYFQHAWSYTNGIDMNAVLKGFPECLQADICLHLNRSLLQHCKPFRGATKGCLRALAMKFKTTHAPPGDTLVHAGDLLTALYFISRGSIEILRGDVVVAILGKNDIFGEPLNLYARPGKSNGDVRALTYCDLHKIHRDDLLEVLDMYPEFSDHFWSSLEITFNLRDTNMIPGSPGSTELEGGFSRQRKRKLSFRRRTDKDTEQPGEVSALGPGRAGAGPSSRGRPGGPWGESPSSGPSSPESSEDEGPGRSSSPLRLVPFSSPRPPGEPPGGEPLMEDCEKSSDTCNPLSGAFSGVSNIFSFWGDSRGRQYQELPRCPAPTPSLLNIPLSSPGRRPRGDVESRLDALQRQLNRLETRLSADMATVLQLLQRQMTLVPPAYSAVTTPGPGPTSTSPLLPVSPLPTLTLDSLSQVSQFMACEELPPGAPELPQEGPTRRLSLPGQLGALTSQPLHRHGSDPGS

This assay concerns the target human ether-à-go-go-related gene (hERG) potassium channel (human, UniProt Q12809). Briefly: primary screen, population patch clamp on CHO cells stably expressing hERG.
On to `O=C(O)c1ccccc1C(=O)Nc1ccc(Br)c(C(F)(F)F)c1`, for which the “hERG current change (%, negative = inhibition) at 10uM” value is listed as -70.6%. `CN1CCN(CC#CCC(O)(c2ccccc2)c2ccccc2)CC1.Cl`: the “hERG current change (%, negative = inhibition) at 10uM” value is reported as 13.2%. Then `CC(CC(=O)Nc1ccc(F)cc1F)S(=O)(=O)c1ccc2c(c1)NC(=O)CO2` (stereo not drawn), with -9%; and `Cc1ccccc1SC1CCN(Cc2nc(C3CC3)no2)CC1`, with -14.2%. Regarding `CC(C)C(NC(=O)C(Cc1ccccc1)NC(=O)OCc1ccccc1)C(=O)O` (stereo not drawn) (Cbz-Phe-Val-OH; configuration not given here), the “hERG current change (%, negative = inhibition) at 10uM” value was found to be 20.1%. Then `Cc1nn(C(C)C(=O)NCc2ccccc2F)c(=O)c2nn(-c3ccccc3)c(C)c12` (stereo not drawn), with 13.8%; and `CCOC(=O)Cc1csc(NC(=O)c2cnc3scc(C)n3c2=O)n1`, with 10.4%. `C=C1C[C@]23C[C@@]1(O)CC[C@H]2[C@@]12C=C[C@H](O)[C@@](C)(C(=O)O1)[C@H]2[C@@H]3C(=O)O`: the “hERG current change (%, negative = inhibition) at 10uM” value was determined as 9.21%. Then `Cc1cc(=O)oc2ccc(OC(=O)c3cccc(S(=O)(=O)N4CCOCC4)c3)cc12`, with -70.5%. Then `Cn1c(N2CCOCC2)cc(=O)n(C)c1=O`, with -18.2%; and `O=C(NCC(c1cccnc1)N1CCN(c2ccc(F)cc2)CC1)c1ccc2c(c1)OCO2` (stereo not drawn), with -65.3%. Take `Cc1ccc(S(=O)(=O)N2CCC(C(=O)OC(C)C(=O)N(C)c3ccccc3)CC2)cc1C` (stereo not drawn): the “hERG current change (%, negative = inhibition) at 10uM” value is reported as -25.7%. With `CCOc1ccc(/C=N/NC(=S)NC2CC3C=CC2C3)cc1` (stereo not drawn) the figure was 19.5%; with `C(=N\Nc1nc(-c2ccccc2)cs1)/c1cccs1`, 18.5%; with `COc1cc(CNCCN2CCOCC2)ccc1OCc1ccc(Cl)cc1Cl.Cl`, -69.7%. Then `O=C(c1cccs1)N1CCC(c2nc3c(nnn3Cc3c(Cl)cccc3Cl)c(=O)[nH]2)CC1`, with -3.47%; and `CCN1CCN(C(=O)c2cn(CCOC)c(=O)c3c2c2ccccc2n3C)CC1`, with 12%; and `COc1ccccc1NC(=O)c1ccc(NC(=O)CN2CCCC2)cc1`, with -34.2%. Then `O=C(NCCC1=CCCCC1)C(=O)NCC1OCCCN1S(=O)(=O)c1cc(F)ccc1F` (stereo not drawn), with -10.8%; and `Cc1ccc(F)cc1NC(=O)CSCc1nc2sc(C)c(C)c2c(=O)[nH]1`, with 2.49%; and `C/C(=N\NC(=O)CNc1cccc(C(F)(F)F)c1)c1cccc(Br)c1`, with 0.604%. For the compound `Cn1cccc1CC(=O)NNC(=S)Nc1ccccc1Cl`, the “hERG current change (%, negative = inhibition) at 10uM” value amounted to 11.6%. With `CCc1cc2c3c(c(=O)oc2cc1OC(C)C(=O)O)CCCC3` (stereo not drawn) the figure was 12.6%; with `COC(=O)c1cc(S(=O)(=O)NCc2ccccc2)cn1C`, 8.07%; with `COC(=O)c1ccc(NC(=O)c2ccc3c(c2)C(=O)N(Cc2cccnc2)C3=O)cc1`, -23.2%. Then `Cc1ccc([N+](=O)[O-])cc1NC(=O)CSc1nnc(C)n1CC1CCCO1` (stereo not drawn), with -14.6%; and `COC(=O)C1(C(O)C(=O)c2ccc(C)cc2C)CCCCC1` (stereo not drawn), with 2.87%.

Take `O=C(N[C@@H](Cc1ccccc1)c1nc2ccccc2[nH]1)c1cc([N+](=O)[O-])ccc1Cl`: the “hERG current change (%, negative = inhibition) at 10uM” value was -28%. With `O=S(=O)(c1ccccc1)N1N=C(c2ccccc2)CC1c1ccccc1` (stereo not drawn) the figure was -6.01%. Then `CS(=O)c1ccc(-n2c(=O)n(Cc3ccccc3)c(=O)c3[nH]cnc32)cc1` (stereo not drawn), with 2.47%; and `Cc1nc2ccccc2c2oc(C(=O)N3CCN(C4CCCCC4)CC3)cc12`, with -64.7%. Then `CCCc1cc(C(=O)N2CCCC(N3CCN(c4ccc(F)cc4)CC3)C2)no1` (stereo not drawn), with -73%. As for `O=C(Nc1cc(Cl)ccc1-n1cncn1)c1cccs1`, the “hERG current change (%, negative = inhibition) at 10uM” value is reported as -24.9%. Then `N/C(=N\OC(=O)c1cc(-c2ccccc2)nc2ccccc12)c1cccnc1`, with -8.32%; and `CCSc1nnc(NC(=O)C2CCN(S(=O)(=O)c3c(C)c(C)cc(C)c3C)CC2)s1`, with 7.7%.

In the case of `COC(=O)c1cc(NC(=O)c2cccc(C(F)(F)F)c2)c(=O)oc1C/C=N/OCc1cccc(Cl)c1Cl`, the “hERG current change (%, negative = inhibition) at 10uM” value was 1.53%. Then `O=C(NCCc1ccccc1)C(=O)NCCC1CCCCN1S(=O)(=O)c1ccccc1` (stereo not drawn), with -19.5%; and `O=C(CCNC(=O)c1ccccc1Cl)Nc1nc(-c2ccc3ccccc3c2)cs1`, with -26.4%; and `COc1ccc(CCNC(=O)CC(NC(=O)c2ccccc2Cl)c2ccccc2)cc1` (stereo not drawn), with 7.07%. `Cc1cccc(N2CCC(N=CN(C)C)=N2)c1`: the “hERG current change (%, negative = inhibition) at 10uM” value is given as 3.62%. Then `CCOC(=O)CC1=CC(=O)Nc2ccccc2N1`, with -4.25%; and `Cn1ccc(NC(=O)CCl)n1`, with 7.72%.
